Laboratory results taken from the supplement of paper PMC7125110.
± gives the standard error. Variants at the floor of the assay are shown more often than the library holds them.

B1: glmS ribozyme (parent)
chain: AUAAAAGCGCCAGAACUACAGAAAUGUAGUUGACGAGGAGGAGGUUUAUCGAAUUUUCGGCGGAUGCCUCCAAA

Variants of: B1
Test: self-cleavage kobs at 10000 uM GlcN6P; higher = faster cleavage; RNA array
Settings: with glucosamine-6-phosphate
In short: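 Barcoded ribozyme variants on sequenced MiSeq chips were transcribed in situ by E. coli RNA polymerase and followed at 37 °C through a hybridised Cy3 probe. Glucosamine-6-phosphate at 40 μM to 10 mM in HEPES/KCl/Mg(OAc)2 buffer was flowed in, and tiles were imaged over ~14 h. Signals were normalised to baseline and to non-cleaving reference variants, and per-tile medians were fit to one- or two-exponential decays to give kobs. Weighted Michaelis–Menten fits across concentrations gave kcat and KM.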

U56G C58A G59A G63C C71G and C50U G59A U69C cannot be ordered by “self-cleavage kobs at 10000 uM GlcN6P” value: < 1e-05 s⁻¹ for the first, < 1e-05 s⁻¹ for the second.

A48C G62U C67U C71G and G40A U57A C61G cannot be ordered by “self-cleavage kobs at 10000 uM GlcN6P” value: < 1e-05 s⁻¹ for the first, < 1e-05 s⁻¹ for the second.

A39C G44A U54G A64G and A48U U49A U56C cannot be ordered by “self-cleavage kobs at 10000 uM GlcN6P” value: < 1e-05 s⁻¹ for the first, < 1e-05 s⁻¹ for the second.

U56C C68U C70A and A48G C50A G63C cannot be ordered by “self-cleavage kobs at 10000 uM GlcN6P” value: < 1e-05 s⁻¹ for the first, < 1e-05 s⁻¹ for the second.

G62U C68A and G40U G43C U65A cannot be ordered by “self-cleavage kobs at 10000 uM GlcN6P” value: < 1e-05 s⁻¹ for the first, < 1e-05 s⁻¹ for the second.

G40U G59C G63U and U49A U65G C67G U69A cannot be ordered by “self-cleavage kobs at 10000 uM GlcN6P” value: < 1e-05 s⁻¹ for the first, < 1e-05 s⁻¹ for the second.

First: A64U U69C
Second: U56C U65G U69A
The “self-cleavage kobs at 10000 uM GlcN6P” value of the first is higher: 4.48e-05 ± 1.3e-05 s⁻¹ for the first, < 1e-05 s⁻¹ for the second.

Compared with G38U C50G C71A, G51A A53C C58G is lower in “self-cleavage kobs at 10000 uM GlcN6P” value: 9.8e-05 ± 1.9e-05 s⁻¹ for the first, < 1e-05 s⁻¹ for the second.

U57C C61U C71A and A39C U57C A64C cannot be ordered by “self-cleavage kobs at 10000 uM GlcN6P” value: < 1e-05 s⁻¹ for the first, < 1e-05 s⁻¹ for the second.

A48C C50G and U56G U57G cannot be ordered by “self-cleavage kobs at 10000 uM GlcN6P” value: < 1e-05 s⁻¹ for the first, < 1e-05 s⁻¹ for the second.

A39C U65G C68G and U47C G51U G62C cannot be ordered by “self-cleavage kobs at 10000 uM GlcN6P” value: < 1e-05 s⁻¹ for the first, < 1e-05 s⁻¹ for the second.

G44C U57G and G51A G60U C70U cannot be ordered by “self-cleavage kobs at 10000 uM GlcN6P” value: < 1e-05 s⁻¹ for the first, < 1e-05 s⁻¹ for the second.

G40A G44U U47G G60U C61U C68U and G51U U56A U65G cannot be ordered by “self-cleavage kobs at 10000 uM GlcN6P” value: < 1e-05 s⁻¹ for the first, < 1e-05 s⁻¹ for the second.

Compared with U49G U57A G63A, U46G C68A is higher in “self-cleavage kobs at 10000 uM GlcN6P” value: < 1e-05 s⁻¹ for the first, 3.1e-05 ± 1.1e-05 s⁻¹ for the second.

A42C U46C U49G U54A and U49G U55A C61A G66U C71U cannot be ordered by “self-cleavage kobs at 10000 uM GlcN6P” value: < 1e-05 s⁻¹ for the first, < 1e-05 s⁻¹ for the second.

Going from A39G U49G to G44C U45A G62U, the “self-cleavage kobs at 10000 uM GlcN6P” value falls from 0.000904 ± 0.00021 s⁻¹ to < 1e-05 s⁻¹.

A42C U46A U57C G62C and A39U G63U U65A cannot be ordered by “self-cleavage kobs at 10000 uM GlcN6P” value: < 1e-05 s⁻¹ for the first, < 1e-05 s⁻¹ for the second.

A48G C61G C68U and A48U G59C G62U C67G C70G cannot be ordered by “self-cleavage kobs at 10000 uM GlcN6P” value: < 1e-05 s⁻¹ for the first, < 1e-05 s⁻¹ for the second.

U46C G51C and G40A C50A U56C cannot be ordered by “self-cleavage kobs at 10000 uM GlcN6P” value: < 1e-05 s⁻¹ for the first, < 1e-05 s⁻¹ for the second.

A42G U55C G60A and C50G U54C C71U are within error of each other in “self-cleavage kobs at 10000 uM GlcN6P” value: 4.43e-05 ± 1.7e-05 s⁻¹ for the first, 4.14e-05 ± 1.5e-05 s⁻¹ for the second.

G51A C71A and U49C C50U U56C cannot be ordered by “self-cleavage kobs at 10000 uM GlcN6P” value: < 1e-05 s⁻¹ for the first, < 1e-05 s⁻¹ for the second.
